# According to PubChem BioAssay AID504832 (National Center for Advancing Translational Sciences (NCATS), 2011):
# In all, about 310,000 compounds went through this assay and about 18,000 (5.8%) were called active. This list was built around the results that the source calls inconclusive (neither active nor inactive); the mix of calls is not that of the screen. Calls come from the whole dose curve; as a rule, active = well fitted inhibition curve with a large enough effect; inconclusive = small, poorly fitted or top-dose-only effect, or another doubt; inactive = no such curve, though single readings can be large or run the other way. Potencies of inconclusive entries are left out as doubtful fits.
# Experiment: Primary qHTS for delayed death inhibitors of the malarial parasite plastid, 48 hour incubation
# Details: P. falciparum luciferase growth in erythrocytes; series mostly up to 28.7 µM
# How it was run: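 In quantitative HTS format, infected erythrocytes bearing luciferase-reporter parasites were treated for a single generation at 37 C. Luminescence after adding detection reagent served as the growth measure.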
# Potency is the fitted concentration of half-maximal effect; tags give direction and shape of the fitted curve.
row,SMILES,Potency
1,CCC1SC(C)C/C(=N/NC(N)=O)C1C (centres undefined),inactive
2,Cc1cc(NS(=O)(=O)c2ccc(NC(=O)/C=C/c3c(F)cccc3Cl)cc2)no1,inactive
3,CCN(C(=O)c1ccc(NC(=O)Cc2ccccc2)cc1)c1ccccc1,inactive
4,COCc1cc(C)nc(SCC(=O)Nc2cc(C(F)(F)F)ccc2N2CCOCC2)c1C#N,"inconclusive [inhibitor, partial curve, poor fit]"
5,COc1ccc(C(=O)NCC(=O)N/N=C/c2cn[nH]c2-c2ccccc2)cc1,inactive
6,COc1cc(NC(=O)Cn2c(=O)n(CC3CCCO3)c(=O)c3cc(OC)c(OC)cc32)cc(OC)c1 (centres undefined),"inconclusive [inhibitor, single point]"
7,CCOc1ccccc1N1CCN(C(=O)NCc2ccc(C)cc2)CC1,"inconclusive [inhibitor, full curve, poor fit]"
8,Cc1cccc(Cn2nnc3c2C(=O)c2ccccc2C3=O)c1,"inconclusive [inhibitor, partial curve, poor fit]"
9,Cc1c(C(=O)NC2CCCc3ccccc32)oc2ccc(S(=O)(=O)N3CCCC3)cc12 (centres undefined),"inconclusive [inhibitor, partial curve]"
10,CCN(Cc1nc2ccccc2c(=O)[nH]1)Cc1nc2cc(OC)c(OC)cc2c(=O)[nH]1,"inconclusive [inhibitor, single point]"
11,COc1ccccc1C(=O)NCC(=O)OCC(=O)Nc1nnc(-c2ccccc2)o1,"inconclusive [inhibitor, single point]"
12,COc1ccc(N(CC(=O)N/N=C/c2ccc(F)cc2)S(=O)(=O)c2ccccc2)cc1,"inconclusive [inhibitor, single point]"
13,Fc1ccc(Nc2nnc(C(F)(F)F)s2)cc1,"inconclusive [inhibitor, full curve, poor fit]"
14,CCN1CCCC1CN(Cc1cc2cc(C)cc(C)c2[nH]c1=O)C(=O)Nc1ccccc1OC (centres undefined),active: 9.28 µM
15,CS(=O)(=O)Nc1ccc(-c2cn3c(n2)SCC3)cc1,inactive
16,Cc1ccc2c(CN3CCN(S(=O)(=O)/C=C/c4ccccc4)CC3)cc(=O)oc2c1,"inconclusive [inhibitor, partial curve]"
17,O=C(NCc1ccccc1Cl)C1CCC(CNc2nc(=S)[nH]c3ccccc23)CC1 (centres undefined),"inconclusive [inhibitor, single point]"
18,CN(Cc1ccccc1)C(=O)c1[nH]cnc1C(=O)N[C@@H](Cc1ccccc1)C(=O)OCc1ccccc1,"inconclusive [inhibitor, single point]"
19,COc1ccc(-n2c(Cc3ccccc3)nnc2SCc2ccc([N+](=O)[O-])cc2)cc1,"inconclusive [inhibitor, partial curve, poor fit]"
20,Cc1ccc(NC(=O)Nc2ccc3c(c2)CCC3)cc1C,inactive
21,COc1ccc(-c2cn[nH]c2-c2ccc(OCc3ccccc3F)cc2O)cc1OC,"inconclusive [inhibitor, single point]"
22,Clc1ccc(CSc2nnc(/C=C/c3ccccc3)o2)cc1,"inconclusive [inhibitor, partial curve]"

row,SMILES,Potency
1,COc1ccc(OC)c(CC(=O)Nc2cc(S(=O)(=O)N3CCCCC3)ccc2C)c1,"inconclusive [inhibitor, partial curve, poor fit]"
2,Cc1nc(C)c(-c2ccn(C(=O)NC(C)C)n2)s1,inactive
3,CCOC(=O)c1c(NC(=O)CSc2nnc(CN3CCOCC3)n2C)sc2c1CCCC2,"inconclusive [inhibitor, single point]"
4,S=C(c1cn(Cc2ccc(Br)cc2)c2ccccc12)N1CCOCC1,inactive
5,COc1ccccc1NC(=O)Nc1ccc(F)c(F)c1,"inconclusive [inhibitor, partial curve]"
6,CCOC(=O)C1CCCN(C2=NC(=O)/C(=C/c3ccc(N(C)C)cc3)S2)C1 (centres undefined),active: 6.57 µM
7,CCOC(=O)c1c(C)[nH]c(C(=O)OCC(=O)N(C)CC(=O)Nc2ccccc2Cl)c1C,inactive
8,Clc1ccc(-c2nnc(-c3cccc4ccccc34)o2)cc1Cl,inactive
9,Cc1nn(-c2cc(N3CCCCCC3)ccc2[N+](=O)[O-])c(=O)c2ccccc12,"inconclusive [inhibitor, single point]"
10,CN1CCN(C(=O)/C(=C/c2cn(S(=O)(=O)N(C)C)c3ccccc23)NC(=O)c2ccccc2)CC1,"inconclusive [inhibitor, partial curve, poor fit]"
11,Cc1cc2[nH]c3ccccc3c2c(C)n1,active: 6.57 µM
12,CCOC(=O)NC1C=CS(=O)(=O)C1 (centres undefined),inactive
13,Cn1c(C2CCCCC2)nc2c1c(=O)[nH]c(=O)n2Cc1ccccc1,"inconclusive [inhibitor, single point]"
14,COc1ccc(C)cc1NC(=O)C(c1ccccc1)N1CCN(CC(=O)NC2CC2)CC1 (centres undefined),active: 2.33 µM
15,O=C1c2ccccc2C(Nc2ccc(-c3nc4ccccc4[nH]3)cc2)N1Cc1ccco1 (centres undefined),"inconclusive [inhibitor, single point]"
16,CSc1ccc(CN2CCSCC2)cc1,inactive
17,CN1CCN(c2ncnc3c2[nH]c2ccc(F)cc23)CC1,active: 2.94 µM
18,CCOC(=O)c1c(NC(=O)CSc2nc3cc(Cl)ccc3c(=O)n2Cc2ccco2)sc(C(=O)N(C)C)c1C,active: 5.86 µM
19,CC(=O)c1ccc(N2CCN(C(=O)/C=C/c3ccc4ccccc4n3)CC2)cc1,"inconclusive [inhibitor, partial curve]"
20,CCOc1ccccc1C(=O)NC(C(=O)Nc1ccccc1N1CCOCC1)C(C)C (centres undefined),"inconclusive [inhibitor, partial curve]"
21,CCOC(=O)C1(CCCc2ccccc2)CCN(C(=O)Cc2nonc2C)CC1,"inconclusive [inhibitor, single point]"
22,Cc1ccccc1NC(=O)CN1CCN(C(=O)c2ccco2)CC1,"inconclusive [inhibitor, single point]"
